Data: PMC12136788
The other results are listed elsewhere or left out.

B1: 120456670_120457671_4033_CDS_ENSMUSG00000064302_ENSMUST00000049404|mouse|control|control (ssRNA)
RNA: GGGAGUUCUACAGUCCGACGAUCACAGUUGGUGGGUGAGGUCAGGGGGCUGGUCCUGCUGCUGGGGUGGCGGGAAGGUGUCCGGCCAAUUGUAUUGCUUGGAGAUCCCACACCGGUGUUACUGGAGUUCUUGAGGUGGUUAUGCAACAGAGGAUUGAGCAUCA
B2: chr1:38489359:38489360:+_ENSG00000183520_ENST00000537711|hu_hu|FALSE|FALSE (ssRNA)
RNA: GGGAGUUCUACAGUCCGACGAUCUAGUUAUGGUUACAAACCGGAAAACCAUGCCAUUUGGAGUAAUGGAAUUUGAAGUUACUAGAAAACGACAACAGAUUUUUGAUACAGAAUGACAAGGCUUAUCUAUAACACGUCAACGUUCAACAGAGGAUUGAGCAUCA
B3: chr10:1063573:1063574:+_ENSG00000107937_ENST00000545048|hu_mus|motif|central (ssRNA)
RNA: GGGAGUUCUACAGUCCGACGAUCACUAUGUUUUUGCUGGGUGUUUACUUUGGAUAAAAUGGUUGAAGUUACAAUGAUACAUUGUACGGCAGGUUUAGAAAAUAAUUUAAGAGUAGUUUAAGCUCUGAUAAACCCUAAAUGUAACAACAGAGGAUUGAGCAUCA
B4: chr12:36856662:36856663:-_ENSMUSG00000020547_ENSMUST00000020856|mus_hu|motif|central (ssRNA)
RNA: GGGAGUUCUACAGUCCGACGAUCAAGCAUACUGCCAGCCACCAGGAUAUCGAAGAGUGUGUCUGCAUAGCGACGAUAAUCGGAUCUUGAGCCUGUAGAGUCCAGAAAUUUGGCUACAGCUUCAAGGUCAUCACCAGCCUCAUUCAACAGAGGAUUGAGCAUCA
B5: chr12:79975562:79975563:+_ENSMUSG00000021116_ENSMUST00000071230|mus_hu|FALSE|FALSE (ssRNA)
RNA: GGGAGUUCUACAGUCCGACGAUCGAAUUUGUCUUCACAUUUGAUUGCUUCCUCUGGAGAAACUCUUCUUUUUGACAAAUCAAUAUAUCCUUUUUCUUUGUCCACCCUAAUGACAACCACACACUCAUUCCUGCCAAUUCGGAUCAACAGAGGAUUGAGCAUCA
B6: chr19:53983630:53983631:+_ENSMUSG00000024975_ENSMUST00000025931|mus_mus|FALSE|FALSE (ssRNA)
RNA: GGGAGUUCUACAGUCCGACGAUCAUUUCCAUUUAUUUCAUUCUUUAUUUCUUCAGUGCCAGCAUUUUCUUCAUCUCCAGAAAAGAGAGAGUCGCUUAAAUUGUCAGGGUCAGUGGGGUUCACAUUCAGUGUCUGCUCAUUUUCCAACAGAGGAUUGAGCAUCA
B7: 21043593_21043713_273_3pUTR_ENSMUSG00000033382_ENSMUST00000025177|mouse|control|control (ssRNA)
RNA: GGGAGUUCUACAGUCCGACGAUCUAAUCACAUUAGCGACUAAUCCUUCUGCAGGCUGGCUGCCAGAAACAACAUCAUUCAAAAGCUUCCCAAUGGCUCCCGGCUGAGGUGGCUGGGUGACAAUGUUGCUUACUGCUAUCUUCACAACAGAGGAUUGAGCAUCA
B8: chr21:32491406:32491407:-_ENSG00000156299_ENST00000286827|hu_hu|FALSE|FALSE (ssRNA)
RNA: GGGAGUUCUACAGUCCGACGAUCCAUAGUAUUUUAAACCCUUCUUAGGAAGUGGACAUUGUGACAUGGGAAAAGAAAAAGCUAUAAACCUUUUUUUAAAAAAAAAAAAAAAAUUGAAAGUGCUAUAACUUGUUUUUCUUCUUACAACAGAGGAUUGAGCAUCA
B9: chr10:80642667:80642668:+_ENSMUSG00000034994_ENSMUST00000047864|mus_mus|FALSE|FALSE (ssRNA)
RNA: GGGAGUUCUACAGUCCGACGAUCCACUCUACCAAAGGCAUAGAAGCGGCCUUUGUCAGAGGUUGGCACCAUCUUGGAAAUGUACAUCAUAAGUGGGCCUUUGGGGUCGCAGCUCUUAAUACCCAUGGCGGCCUCAUCGUCGGGCAACAGAGGAUUGAGCAUCA
B10: chr19:5716489:5716490:-_ENSMUSG00000024937_ENSMUST00000075606|mus_hu|FALSE|FALSE (ssRNA)
RNA: GGGAGUUCUACAGUCCGACGAUCCACCAUGUCCGCGGGCUCCAGCAGCCGCGACACGCCCAGAGCCGCGAAGCCAUCGAAGGCCUGCUUGUUGUUCUGCUUGAUGUUGAGUGGGUCUAGCGAGGCAUAGUCAAUCUUGUCUGGCAACAGAGGAUUGAGCAUCA
B11: chr1:243329018:243329019:-_ENSG00000143702_ENST00000366542|hu_mus|FALSE|FALSE (ssRNA)
RNA: GGGAGUUCUACAGUCCGACGAUCAAACUUAGUAGGAGUCCACUGGGCCUGCUCCUUUUGCUCUUGCUGCUGCAUUUUAGCCAAUGUUUGUUUUACCAAAGAAGUUUCCUUUUCCGUCUCACUCUUCUCCUUGCUAGAUGAGCUCAACAGAGGAUUGAGCAUCA
B12: chr1:182620099:182620100:+_ENSMUSG00000058729_ENSMUST00000085803|mus_hu|motif|central (ssRNA)
RNA: GGGAGUUCUACAGUCCGACGAUCCAAAGGUUUCUUUUAUAUGUUAUGAUAAAUUAAAAUAUUUAUUAUUAUAAAAUGAUCGGCAGAACCAUGUCACAUUGCAAGUAUAUAUAACAUAUACUUGUAAAGUCCACAUUUCCCAUCCAACAGAGGAUUGAGCAUCA
B13: chr17:57762449:57762450:+_ENSG00000141367_ENST00000269122|hu_hu|motif|central (ssRNA)
RNA: GGGAGUUCUACAGUCCGACGAUCUUCAUGUUUUUCCAAACGCUGAGCAAGCGAGAUAUUGUCAAAGUUGUCAUAAGCAUCGGUUGAUGUUCGCAGAGCCUGAUAAUCUUCUUCUGUAAUAAAAAGAUUGUUCAAUGAUUCAUUCAACAGAGGAUUGAGCAUCA
B14: chr2:37325018:37325019:+_ENSMUSG00000035437_ENSMUST00000112920|perfect_dup|motif|central (ssRNA)
RNA: GGGAGUUCUACAGUCCGACGAUCAUUAUUUGUAGAUGGUGUCUCAUCUCCUUGCCUGGAAACCAAGACAAAAUCUUCACGGUUAAGAGUAGAUACUGAGUCUGAAGAGACACUGAUUUUUCCAACAGAAGCCUUGUCAUCCAUCAACAGAGGAUUGAGCAUCA
B15: chr17:65740002:65740003:+_ENSG00000130935_ENST00000581375|hu_hu|hu_hu_hu_mus_False|1_38 (ssRNA)
RNA: GGGAGUUCUACAGUCCGACGAUCAACAAAUCUUUCUUCCCUGGACGAACAGGAAGAUUCAUAUUAAAAAAAAUAUAUAUCCAUCAAGUUAGGUGUGUAAUAUCAGACUUUACUCCCAGCACUUUGGGAGGUGGAUCCUCUAUUCAACAGAGGAUUGAGCAUCA
B16: chr7:54825262:54825263:-_ENSG00000132432_ENST00000352861|hu_hu|hu_hu_hu_mus_False|1_1 (ssRNA)
RNA: GGGAGUUCUACAGUCCGACGAUCCUGCCGGCUGGGCUCCACAAACUGCAUUACCUGAUCCAUGUUUGUUGGAUGGCGGAUUGAGAGCGUAGAGACACGUAGCUCAGGAGAGAACCGAGCCCAACGGAACCGGAAGCGGAAUCCCAACAGAGGAUUGAGCAUCA
B17: chr14:22664367:22664368:+_ENSMUSG00000021771_ENSMUST00000022293|mus_mus|FALSE|FALSE (ssRNA)
RNA: GGGAGUUCUACAGUCCGACGAUCAGACAGUGUAAGCUUCACACCAGGCCUCAGAGUCUGAGUAUAGCCCACUCCAAUUAAACUAGAGUUGUUGACCUUUGCAGAGAUAGAAGCAGUAGGAUCCAACUGGUAUUUAGCUGCAAUCAACAGAGGAUUGAGCAUCA
B18: 36391053_36391173_8692_3pUTR_ENSG00000092847_ENST00000373204|human|control|control (ssRNA)
RNA: GGGAGUUCUACAGUCCGACGAUCAUACUGAUCUGUUGGUAUAUGCCAUGACCCUGAGAUGACAAAAAUGAAGAGAAUAUAGCUUCUGCUCCUAGGAGUUCAUAGGCUCUAAAGAAGACAAAUUAUGGAAAUAAAUAUAGUAUGCAACAGAGGAUUGAGCAUCA
B19: chr5:70837361:70837362:+_ENSG00000145734_ENST00000358731|hu_mus|FALSE|FALSE (ssRNA)
RNA: GGGAGUUCUACAGUCCGACGAUCAUGAUGCAUGCGAUGUACUAAUGACAGGUGAACAAACCUCCGGAUAGUCAUGGACAACUUUUUGAUUUACAUUAUCUGGGCUAAAAGGAGCAUGACUUUUAUCCUCUGAAUGAACAUCAGCAACAGAGGAUUGAGCAUCA
B20: chr1:109605425:109605426:-_ENSG00000197780_ENST00000461096|hu_hu|motif|central (ssRNA)
RNA: GGGAGUUCUACAGUCCGACGAUCUAGUCAAGGACACAUUUCCACAAUGAACAAGUACUUACAAAUAUGUUAAUAAAACACGGACCCAAAUGCUUACCCUGCCAUCAGCUUUUUAAACAAUGCCAUUCCUGCUACUGAAAGCAUCAACAGAGGAUUGAGCAUCA
B21: chr7:141438946:141438947:+_ENSG00000106028_ENST00000265304|hu_mus|hu_hu_hu_mus_True|8_78 (ssRNA)
RNA: GGGAGUUCUACAGUCCGACGAUCGACGAAAUACCUGUAACACAGGUCUUCGAAACAUUCUAUUUUCUUUUCUUACAACCUAAUCUUUAGGCUUUUCCUAAAGGAAAGAAAGAAAAGAGAAAAAUGAGCAGGGGAUCAACUACACAACAGAGGAUUGAGCAUCA
B22: chr15:60656694:60656695:-_ENSG00000182718_ENST00000451270|hu_hu|FALSE|FALSE (ssRNA)
RNA: GGGAGUUCUACAGUCCGACGAUCUCUCUGGUAGGCGAAGGCAAUAUCCUGUCUCUGUGCAUUGCUGCGGUUGGUCAAAAUGUUGACAAUGGUGACCUCAUCCACACCUUUGGUCUUGAUGGCUGUUUCAAUGUUCAAAGCAUCCAACAGAGGAUUGAGCAUCA

Target: T1, UNK ZnF1-3 (human, UniProt Q9C0B0 31-174)
T1 sequence: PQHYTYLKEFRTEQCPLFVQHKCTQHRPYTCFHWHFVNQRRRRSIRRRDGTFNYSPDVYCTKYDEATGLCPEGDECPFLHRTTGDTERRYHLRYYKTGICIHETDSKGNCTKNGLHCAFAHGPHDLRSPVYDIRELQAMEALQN
Assay: nsRBNS (natural sequence RNA bind-n-seq); RBNS binding buffer (assumed for nsRBNS): 25 mM Tris pH 7.5, 150 mM KCl, 3 mM MgCl2, 0.01% Triton X-100, 500 ug/ml BSA, 20 U/ml SUPERase-In, 4 C; UNK is unkempt and MSI1 is Musashi-1; names of the RNAs are library labels; protein concentration not given here; high values mean tight binding

First: B1
Second: B2
The binding signal of the first is higher: 1.24 enrichment R for the first, 1.06 enrichment R for the second.

Compared with B3, B4 is lower in binding signal: 1.36 enrichment R for the first, 1.06 enrichment R for the second.

Going from B5 to B6, the binding signal rises from 0.71 enrichment R to 0.782 enrichment R.

Compared with B7, B8 is higher in binding signal: 1.01 enrichment R for the first, 1.83 enrichment R for the second.

Going from B9 to B10, the binding signal falls from 1.23 enrichment R to 0.638 enrichment R.

Compared with B11, B12 is higher in binding signal: 0.492 enrichment R for the first, 1.94 enrichment R for the second.

Compared with B13, B14 is lower in binding signal: 0.806 enrichment R for the first, 0.558 enrichment R for the second.

First: B15
Second: B16
The binding signal of the first is lower: 1.25 enrichment R for the first, 1.3 enrichment R for the second.

First: B17
Second: B18
The binding signal of the first is lower: 1.14 enrichment R for the first, 1.94 enrichment R for the second.

Compared with B19, B20 is higher in binding signal: 1.47 enrichment R for the first, 1.83 enrichment R for the second.

Going from B21 to B22, the binding signal rises from 0.239 enrichment R to 0.703 enrichment R.
